This is one part of the list.

This note sets out measurements from the supplement of paper PMC11417369.

In the experiment the test system is PF3D7_0420300 AP2 domain 1 (GST-tagged). Description: gcPBM binding intensity (ln(normalized median fluorescence intensity)); higher = stronger DNA binding. The essentials: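 Binding intensity is defined as the maximum Masliner-normalised natural-log median intensity across replicate spots for either probe orientation. It was measured on an Agilent 4 × 180k array of primer-extended double-stranded 36-bp intergenic genomic probes and negative controls, to which GST-tagged P. falciparum DNA-binding domains made in E. coli were applied for 1 h in 1× PBS with 1% milk, 0.2 mg/ml BSA, 0.5% salmon testes DNA and 0.03% Triton X-100. Detection was by Alexa488 anti-GST antibody and scanning at 488 nm.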
Turning to “ACAATAAACATATATACACACACAAAAAAAAAAACA [CACACA_site8033]”, the “gcPBM binding intensity (ln)” value stood at 10.3.
For “ATCAAATAGAGACACACACACCTAAACATAAAAGAA [CACACA_site7321]”, the “gcPBM binding intensity (ln)” value is 9.95.
In the case of “ATTTATTAATATCCCAGTACTCATGGGGAATAATGA [XGTACX_site4014]”, the “gcPBM binding intensity (ln)” value was determined as 9.12.
As to “TTGTGTAAAGGTATTATTGTATTATTCAAAATAAAA [XGTACX_negctrl_site167]”, the “gcPBM binding intensity (ln)” value turned out to be 8.95.
With “AATATATAATATATATGTACTTATATATAAAAGATA [XGTACX_site7635]”, the “gcPBM binding intensity (ln)” value was 9.21.
In the case of “TATTACATAATACAAAGTACATATATTTTTTTATTT [XGTACX_site7061]”, the “gcPBM binding intensity (ln)” value worked out at 9.08.
For “GTATATATATATATATGTACTAATTAGTAGTTTACG [XGTACX_site6274]” the value was 9.25; for “AATATTATAAATGATACACACTTAAAATACACGCAC [CACACA_site7305]”, 9.77.
As for “ATATTTATACATAAATGTACTTTTATATATTTAATA [XGTACX_site3020]”, the figure is 9.18; as for “AGCACATATATATTATGTACATATAACTTCCCAGTG [XGTACX_site7095]”, 9.36; as for AATATTTTATTTTGGGTGCAAAAGAATATTATTTCA, 8.93.
For “TGATATTTACAAATATTAAGATCTTATATTTTTTTT [CACACA_negctrl_site617]” the value was 8.98; for “GTGTGAAACATAAACACACACAAAAAGAAAAAATAG [CACACA_site1227]”, 9.7; for “AATATAAATATTAAAACACACATAAAAAGATTATTA [CACACA_site1764]”, 9.41.
Regarding “TATATATATATATTACGTACATAGAACTTTATAAAA [XGTACX_site4485]”, the “gcPBM binding intensity (ln)” value came out at 9.08.
As for “GAACCATAAGGAACGACACACAAAGATAAATAAATA [CACACA_site3472]”, the figure is 9.48.
As for “AAAAAAAAATTATTCACACATATATATATATATATA [CACACA_site5579]”, the figure is 9.02; as for “AAAAATAAAAAAAGCACACACATATATATATATATA [CACACA_site1885]”, 9.75; as for “AAATTTGCTTTTATTTTACACACTTGCTCCTGTTGT [CACACA_site8276]”, 9.81.
As for “ATAATATTTTAATGCACACACACAAAAAAAAAAAAA [CACACA_site2891]”, the figure is 9.72; as for “AAACAATCTAAAAGTAGTACAATAAAAATATATATA [XGTACX_site5607]”, 9.41.
For the sequence “CGATACTTTAGGTGTACACAAATATACATGAATGAG [CACACA_site5189]”, the “gcPBM binding intensity (ln)” value came to 9.32.
As for “AAAAAAAAGGAAATAACACACATGTATTTATTTATA [CACACA_site4966]”, the figure is 9.26; as for “TTATTATAAATGTTTTGTACGTACATCCGAAAATAA [XGTACX_site2175]”, 9.05.
For “TATAATCATATTAAGGGTACATATGTGTAAATATTT [XGTACX_site6018]” the value was 9.23; for “ATAATAATAATATAACCAAGGAAATATAATATTTGT [XGTACX_negctrl_site485]”, 9.41; for “CTTTAAAACCGGTACTGTACACATAGTATTATTATC [XGTACX_site2602]”, 9.39.
On to “ATTAATAAGAAATATACACACATGGATAAATACATA [CACACA_site1872]”, for which the “gcPBM binding intensity (ln)” value is 9.69.
For “TTTCTTGCTACATGAAGTACACTTTCTATGACTCGT [XGTACX_site5583]” the value was 9.12; for “ATATATATTTTATTCACACATAAGATTATAAAACAT [CACACA_site5369]”, 9.27.
As to “TATGATATAATTATGTGTACACAATTTTTTTTTTTT [XGTACX_site1084]”, the “gcPBM binding intensity (ln)” value was 9.34.
For “TGTGTTCAGTATTGCACACACACAACAAAATAAAAA [CACACA_site8017]” the value was 9.63.
For “TTATTGCATTGTTTTTATAAAAAAAAAAAAAAAATT [XGTACX_negctrl_site104]” the value was 8.96; for “CTATTTCATGGACACACACACACAAACAAACATATA [CACACA_site4696]”, 10.2.
Turning to “ATATATTATATAAAGTGTACAAAAAAAATATATAAA [XGTACX_site8065]”, the “gcPBM binding intensity (ln)” value was determined as 9.5.
For “TTATAAATATAAAAATGTACAGAAAAAAAAAATAAA [XGTACX_site863]”, the “gcPBM binding intensity (ln)” value turned out to be 9.52.
Take “AAAAGATTTATACATACACACATATTATATTCACAT [CACACA_site3713]”: the “gcPBM binding intensity (ln)” value stood at 9.64.
As for “ATAGAACTATATTGCACACATAATATATATATATAT [CACACA_site3189]”, the “gcPBM binding intensity (ln)” value is 9.45.
Turning to “GTAAAAAATATGACAAGTACAAGAAAAGAAAAAAGT [XGTACX_site7906]”, the “gcPBM binding intensity (ln)” value is 9.77.
For “TAATATAAAGAAAAGGAACACACAAATATATATATA [CACACA_site8049]” the value was 9.8.
For the sequence TTTTCTTGGTTCAGTGTGCACTTATATATATATATA, the “gcPBM binding intensity (ln)” value was 9.63.
For “TTATAATATATATACAGTACATATATAAAATAATAT [XGTACX_site5917]” the value was 9.25.
As for “TTATTTCTCTTTTCAGTGCATTTTATAACAAAAAAA [GTGCAC_site9930]”, the figure is 8.95; as for “ATATATATAATATGCGGTACACATTAATTAAATCAT [XGTACX_site5702]”, 9.44.
